# Measurements published in PubChem BioAssay AID504832 (National Center for Advancing Translational Sciences (NCATS), 2011).
# Among all 310,000 compounds or so, about 18,000 (5.8%) were called active. This list was built around the results that the source calls inconclusive (neither active nor inactive); the mix of calls is not that of the screen. Calls follow the shape of the dose curve; as a rule, active = well fitted inhibition curve with a large enough effect; inconclusive = small, poorly fitted or top-dose-only effect, or another doubt; inactive = no such curve, though single readings can be large or run the other way. No potency is given beside an inconclusive call; the fits are too rough.
# Assay: Primary qHTS for delayed death inhibitors of the malarial parasite plastid, 48 hour incubation
# Details: P. falciparum luciferase growth in erythrocytes; series mostly up to 28.7 µM
# How it was run: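 Parasite viability was followed by luminescence of a genomically integrated firefly luciferase. Cultures held 0.1% parasitemia at 2% hematocrit (final), incubated under 5% CO2 at 37 C.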
# % is scaled to controls: 0 for no effect and ±100 for the full control effect; potency is read from the fitted curve at half-maximal effect; tags tell the direction and shape of the fitted curve.
SMILES,Potency,"activity change, negative = inhibition"
CC(=O)c1ccc(NC(=S)NN2C(C)CCCC2C)cc1 (stereo not given),inactive,–
CCOC(=O)N=Nc1c2ccccc2c2nc3no[nH]c3nc12,active: 1.04 µM,–
CC(=O)Nc1cccc(NC(=O)CSc2nn3c(=O)c(C)nnc3s2)c1,active: 9.28 µM,–
CC1=CCC2COC(c3ccc[n+](Cc4ccccc4)c3)C1C2 (stereo not given),active: 1.47 µM,–
CCN1CCCC1Cn1cnc2c([nH]c3ccc(Cl)cc32)c1=O (stereo not given),inactive,–
COc1ccc(S(=O)(=O)N2CCCCCC2)cc1NC(=O)c1ccccc1S(C)(=O)=O,"inconclusive [inhibitor, single point]",–
CCN(Cc1ccccc1)C(=O)c1cc(-c2ccc(OC)c(OC)c2)nc2ccccc12,inactive,–
CC(=O)Oc1cc(C)c(OC(C)=O)c2ccccc12,active: 6.75 µM,–
CCO[C@@H]1OC(C(=O)N2CCN(Cc3ccc4c(c3)OCO4)CC2)=C[C@H](C2CCCCC2)[C@H]1CCCO,"inconclusive [inhibitor, full curve]",–
O=C(OCc1ccccc1)c1cccnc1,"inconclusive [inhibitor, single point]",–
CC1CCN(c2ccccc2NC(=O)c2cc([N+](=O)[O-])ccc2N2CCOCC2)CC1,"inconclusive [inhibitor, partial curve, poor fit]",–
CCCCn1c(N)c(N(CC(C)C)C(=O)c2cc(=O)[nH]c3ccccc23)c(=O)[nH]c1=O,"inconclusive [inhibitor, single point]",–
COc1cccc(C(C(=O)NC2CCCC2)N(CC2CCCO2)C(=O)Cc2cccs2)c1 (stereo not given),"inconclusive [inhibitor, partial curve, poor fit]",–
Cc1nn(-c2ccccc2)c(Cl)c1/C=N/NC(=O)c1ccc(CNc2ccccc2)o1,"inconclusive [inhibitor, single point]",–
CNc1nc(-c2c(C)n(C)c3ccc(OC)cc23)cs1,–,inactive: 18.2% [at 0.00184 µM]
COc1ccc(C)cc1NC(=O)CCNS(=O)(=O)c1cccc2nonc12,inactive,–
COc1cccc(CN(C)C(=O)CN2C(=O)NC3(CCCc4ccccc43)C2=O)c1 (stereo not given),"inconclusive [inhibitor, partial curve]",–
O=C(NC1CCN(S(=O)(=O)c2ccccc2F)CC1)c1cccnc1,inactive,–
CCCCC(=O)Nc1ccc(C(=O)N2CCCC(C(=O)OCC)C2)cc1 (stereo not given),"inconclusive [inhibitor, single point]",–
Cc1nc(C#N)c(N/N=C/c2c(F)cccc2Cl)o1,inactive,–
CCN(CC)C(=O)C1CCCN(c2ccccc2[N+](=O)[O-])C1 (stereo not given),"inconclusive [inhibitor, full curve, poor fit]",–
CC1(c2ccccc2)NC(=O)N(CC(=O)N2CCN(S(=O)(=O)c3cccs3)CC2)C1=O (stereo not given),inactive,–
O=C(c1cc(F)ccc1F)C1CCCN(Cc2cccn2-c2ccccn2)C1 (stereo not given),"inconclusive [inhibitor, full curve, poor fit]",–
CC(C)C(=O)N1CCN(c2ccc(NC(=O)COc3ccccc3[N+](=O)[O-])cc2)CC1,"inconclusive [inhibitor, single point]",–

SMILES,Potency,"activity change, negative = inhibition"
COc1ccc(S(=O)(=O)N2CCC(C(=O)NCCC(=O)Nc3ccc(Cl)cc3)CC2)cc1,inactive,–
N#CCCN(CCC#N)C(=S)NC1CC2C=CC1C2 (stereo not given),"inconclusive [inhibitor, single point]",–
O=C(CN(C(=O)c1csnn1)c1ccc(Cl)cc1)NCc1ccc2c(c1)OCO2,"inconclusive [inhibitor, partial curve, poor fit]",–
Cc1sc2ncn(CC(=O)N(CC(=O)NC3CCCC3)Cc3cccs3)c(=O)c2c1C,"inconclusive [inhibitor, single point]",–
Cc1cccc(C(=O)Nc2cccc3cccnc23)c1,inactive,–
CCN(CC)c1ccc(/C=C(/C#N)c2nc3ccccc3[nH]2)c(OC(C)C)c1,"inconclusive [inhibitor, single point]",–
COc1ccc(Nc2nc(-c3ccccc3)nc3ccccc23)cc1,"inconclusive [inhibitor, single point]",–
NS(=O)(=O)c1ccc(NC(=O)COC(=O)c2cc3ccccc3cc2O)cc1,"inconclusive [inhibitor, full curve, poor fit]",–
Cc1nc2ccccc2c(=O)n1/N=C/c1c(O)ccc2ccccc12,"inconclusive [inhibitor, single point]",–
CCCCN1CN(S(=O)(=O)c2ccc(OC)cc2)c2nc3ccccc3nc21,"inconclusive [inhibitor, partial curve]",–
COc1ccc(CN2C(=O)CN(C3CCCCCC3)C(=O)C2c2ccc(OC)c(OC)c2)cc1 (stereo not given),"inconclusive [inhibitor, partial curve, poor fit]",–
COc1ccc(-c2cc(C(=O)Nc3cccc(S(=O)(=O)NCc4ccco4)c3)c3ccccc3n2)cc1OC,active: 2.08 µM,–
CCC(C)CN1CCC(CO)(Cc2ccccc2Cl)CC1 (stereo not given),"inconclusive [inhibitor, partial curve, poor fit]",–
CCS(=O)(=O)c1nc(S(=O)(=O)c2ccc(Cl)cc2)c(NCc2ccco2)s1,"inconclusive [inhibitor, single point]",–
COc1cccc(CNC(=O)CCC2CCCN(C(=O)c3ccccc3N(C)C)C2)c1 (stereo not given),"inconclusive [inhibitor, single point]",–
CS(=O)(=O)N1CCC(C(=O)Nc2ccc(Cl)cc2)CC1,"inconclusive [inhibitor, single point]",–
Cc1onc(-c2ccccc2)c1C(=O)N1CCc2ccccc21,inactive,–
COc1ccccc1NC(=O)COC(=O)C1CC1,inactive,–
CCOC(=O)C1CCN(c2c(NCCN3CCCCC3C)c(=O)c2=O)CC1 (stereo not given),"inconclusive [inhibitor, partial curve]",–
CC1(C)C(C=C(Cl)Cl)C1C(=O)N(Cc1ccccc1Cl)C1CCS(=O)(=O)C1 (stereo not given),"inconclusive [inhibitor, single point]",–
C/C(=N\NC(=O)c1cc(C)[nH]n1)c1ccc(-c2ccccc2)cc1,"inconclusive [inhibitor, single point]",–
CCOC(=O)/C(C#N)=N/Nc1ccccc1C(=O)O,"inconclusive [inhibitor, full curve, poor fit]",–
CC(C)NS(=O)(=O)c1cc(F)ccc1CN1C(=O)c2cccnc2C1=O,inactive,–
CS(=O)(=O)N1CCN(C2C3CC4CC(C3)CC2C4)CC1 (stereo not given),"inconclusive [inhibitor, partial curve]",–

SMILES,Potency,"activity change, negative = inhibition"
CCCc1cc(=O)oc2c(CN3CCOCC3)c(O)ccc12,"inconclusive [inhibitor, single point]",–
COc1ccc(C(C)=O)cc1COc1ccc(Cl)cc1Cl,"inconclusive [inhibitor, partial curve, poor fit]",–
CC(C)N(Cc1ccccc1)C(=O)CN1C(=O)COc2ccc(S(=O)(=O)N3CCCCCC3)cc21,active: 0.828 µM,–
COc1ccc(N(CC(=O)N2CCN(C)CC2)S(=O)(=O)c2ccccc2)cc1OC,"inconclusive [inhibitor, partial curve, poor fit]",–
Cc1ccccc1CN1CCC(n2nccc2NC(=O)c2cccnc2)CC1,"inconclusive [inhibitor, partial curve]",–
CCn1c(SCc2cccc(C)c2)nnc1-c1ccccc1,"inconclusive [inhibitor, full curve, poor fit]",–
COc1ccc(CCN2CC(C(=O)NCCc3cnn(C)c3)CCC2=O)cc1 (stereo not given),inactive,–
CCSc1nc2sc3c(c2c(=O)n1-c1ccccc1)CCN(C)C3,active: 3.29 µM,–
CC(OC(=O)Cc1n[nH]c(=O)c2ccccc12)C(=O)Nc1ccc(F)cc1 (stereo not given),"inconclusive [inhibitor, single point]",–
O=C(/C=C/c1ccccc1)Nc1cccnc1Oc1ccccc1F,inactive,–
Cc1ccc(C(=O)N2CCCC(CCC(=O)N3CCN(c4ccccn4)CC3)C2)cc1 (stereo not given),"inconclusive [inhibitor, single point]",–
CCOc1ccccc1NC(=O)C(=O)CC(=O)c1cccc(OC)c1,"inconclusive [inhibitor, partial curve]",–
CCOc1ccc2nc(SCC(=O)N3c4ccccc4Sc4ccccc43)c(C#N)cc2c1,active: 10.4 µM,–
N#Cc1cccc(NC(=O)COC(=O)CCc2ccc(S(=O)(=O)N3CCOCC3)cc2)c1,inactive,–
Cc1cc2nccc(-c3ccccn3)n2n1,"inconclusive [inhibitor, single point]",–
Cc1cc(OCC(=O)Nc2ccc(S(=O)(=O)N3CCN(C)CC3)cc2)ccc1Br,active: 11.7 µM,–
COc1ccc(CC(O)COS(N)(=O)=O)cc1 (stereo not given),inactive,–
CCOC(=O)c1ccc(NC(=O)CSc2nnc(COc3ccccc3)n2C)cc1,"inconclusive [inhibitor, partial curve]",–
COc1ccc(N(CC(=O)N2CCCCCC2)S(C)(=O)=O)cc1Cl,"inconclusive [inhibitor, full curve, poor fit]",–
COc1cccc(C(=O)Nc2ccc(-n3nncc3C(C)(C)C)cc2)c1,inactive,–
COc1ccc(CCNC(=O)CN2CCC(n3nnc4cc(F)ccc43)CC2)cc1OC,active: 7.38 µM,–
O=c1c2[nH]cnc2n(-c2cccc(F)c2)c(=O)n1Cc1ccccc1,inactive,–
